# Source: PubChem BioAssay AID504832 (National Center for Advancing Translational Sciences (NCATS), 2011)
# Hit rate of the full screen: of about 310,000 compounds, about 18,000 (5.8%) were called active. The shares of active, inactive and inconclusive entries below differ from those in the screen. Calls come from the whole dose curve; as a rule, active = well fitted inhibition curve with a large enough effect; inconclusive = small, poorly fitted or top-dose-only effect, or another doubt; inactive = no such curve, though single readings can be large or run the other way. Potencies of inconclusive entries are left out as doubtful fits.
# Test: Primary qHTS for delayed death inhibitors of the malarial parasite plastid, 48 hour incubation
# Conditions: P. falciparum luciferase growth in erythrocytes; series mostly up to 28.7 µM
# In short: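 First compound was added to culture medium, then infected red cells at 0.1% parasitemia and 2% hematocrit (final). After incubation at 37 C under 5% CO2, luciferase detection reagent was dispensed and light output recorded.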
# Potency is the fitted concentration of half-maximal effect; tags give direction and shape of the fitted curve.
row,Structure (SMILES),Potency
1,CCS(=O)(=O)NCC(c1cccnc1)N1CCN(c2ccccc2F)CC1 (stereo not drawn),"inconclusive [inhibitor, partial curve, poor fit]"
2,COc1ccc(C(=O)CSc2n[nH]c(=O)n2Cc2ccco2)cc1,"inconclusive [inhibitor, full curve, poor fit]"
3,Cc1ccc(NC(=S)N/N=C/c2c(C)[nH]c3ccccc23)cc1,"inconclusive [inhibitor, single point]"
4,S=C(Nc1ccc(Br)cc1)N1CCn2cccc2C1c1cccnc1 (stereo not drawn),"inconclusive [inhibitor, single point]"
5,CC(C)COc1cccc(C(=O)Nc2ccc(N3CCOCC3)cc2N2CCOCC2)c1,"inconclusive [inhibitor, partial curve]"
6,COc1ccc(C(=O)O)c(OC)n1,"inconclusive [inhibitor, full curve, poor fit]"
7,CCc1nn2c(NCCCO)cc(C)nc2c1-c1ccc(F)cc1,"inconclusive [inhibitor, partial curve, poor fit]"
8,FC(F)Oc1ccc(NC(=S)NNc2ccnc3cc(Cl)ccc23)cc1,active: 8.28 µM
9,O=C(NC1=NCCS1)C1CCN(S(=O)(=O)c2ccc(Cl)cc2)CC1,"inconclusive [inhibitor, partial curve]"
10,COc1cc2c(cc1NC(=O)CCCCCN1C(=O)CCC1=O)oc1ccccc12,"inconclusive [inhibitor, single point]"
11,CC(C)Cn1nc(C(=O)Nc2nnc(C3CC3)s2)c2ccccc2c1=O,"inconclusive [inhibitor, single point]"
12,CC(CCc1ccccc1)NS(=O)(=O)c1ccc(Cl)c(C(=O)O)c1 (stereo not drawn),inactive
13,CNC(=O)c1csc(Cc2c(Cl)sc3ccc(Cl)cc23)n1,"inconclusive [inhibitor, full curve, poor fit]"
14,CCOc1ncccc1C(=O)Nc1cc(C(F)(F)F)ccc1N1CCOCC1,inactive
15,CCOC(=O)C(Cc1ccc(OC)c([N+](=O)[O-])c1)NC(=O)CCC(=O)Nc1ccc(OC)cc1 (stereo not drawn),inactive
16,Cc1cc(=O)n2[nH]cc(-c3ccccc3)c2n1,inactive
17,CC(=O)Nc1ccccc1NC(=O)c1ccc(C)c(C)c1,inactive
18,CCc1nnc(NC(=O)CCCSc2nc3ccccc3[nH]2)s1,"inconclusive [inhibitor, single point]"
19,COc1cc(/C=C2\SC(=Nc3ccccc3)N(Cc3ccco3)C2=O)ccc1OC(C)C(=O)O (stereo not drawn),"inconclusive [inhibitor, partial curve, poor fit]"
20,C=CCc1c(C)nc(-c2ccccc2)nc1N/N=C(\C)c1ccc(N)cc1,"inconclusive [inhibitor, single point]"
21,COc1ccc(OC)c(NC(=O)c2cc3oc4ccccc4c3cc2O)c1,active: 4.15 µM
22,CCOC(=O)c1cnc(-n2nc(C)cc2C)nc1Nc1ccc(C)cc1,"inconclusive [inhibitor, partial curve]"
23,CCOC(=O)C1(Cc2cccc(OC)c2)CCCN(C(=O)c2cc(C)[nH]n2)C1 (stereo not drawn),inactive

row,Structure (SMILES),Potency
1,COc1ccc(CN(C)C(=O)c2ccc3c(=O)n4c(nc3c2)CCC4)c(OC)c1,"inconclusive [inhibitor, single point]"
2,COc1ccc(NS(=O)(=O)c2cc(NC(=O)[C@@H](NC(=O)c3ccccc3)C(C)C)ccc2C)cc1,active: 9.28 µM
3,CN(C)CC(=O)N1c2ccccc2CCc2ccc(NC(=O)c3ccc(N)cc3)cc21,active: 5.86 µM
4,CC1=Nc2ccccc2/C1=C/c1nc(-c2ccc(C)s2)oc1O,inactive
5,COc1ccc(-c2c(C(F)(F)F)nn(C)c2NC(C)=O)cc1,"inconclusive [inhibitor, single point]"
6,CCC(C(=O)NC1CCCCC1)N(Cc1cccs1)C(=O)CCC(=O)Nc1cc(C)on1 (stereo not drawn),"inconclusive [inhibitor, single point]"
7,CCN(CC)c1ccc(NC(=S)NC(=O)c2cccs2)cc1,"inconclusive [inhibitor, single point]"
8,COc1ccccc1N=c1oc2cc(O)ccc2cc1C(=O)NCC1CCCO1 (stereo not drawn),"inconclusive [inhibitor, full curve, poor fit]"
9,COc1ccc(C(=O)N(C)C2CCCN(Cc3ccccc3F)C2)cc1OC (stereo not drawn),"inconclusive [inhibitor, single point]"
10,CCC(C)c1c(O)nc(SCc2ccccc2)[nH]c1=O (stereo not drawn),"inconclusive [inhibitor, single point]"
11,CC(NCc1cc(Br)ccc1OCC(N)=O)C12CC3CC(CC(C3)C1)C2 (stereo not drawn),"inconclusive [inhibitor, full curve]"
12,COc1cccc(COC(=O)c2ccc3c(c2)NC(=O)C(C)S3)c1OC (stereo not drawn),"inconclusive [inhibitor, single point]"
13,CCC(c1nnnn1Cc1ccco1)N1CCN(c2cc(Cl)ccc2C)CC1 (stereo not drawn),"inconclusive [inhibitor, single point]"
14,Cc1cccc2nc(-c3ccco3)c(Nc3ccc4c(c3)OCCO4)n12,"inconclusive [inhibitor, partial curve, poor fit]"
15,CCOC(=O)c1c(NC(=S)N2CCCCC2)sc2c1CCN(C(=O)OCC)C2,"inconclusive [inhibitor, single point]"
16,C[C@H](NC(=O)[C@@H]1CSC2c3ccccc3C(=O)N21)C(=O)NCCc1ccc(F)cc1 (stereo partly drawn),inactive
17,COc1ccc(-c2nn(Cc3ccccc3)cc2C(=O)N2CCN(c3ncccn3)CC2)cc1OC,"inconclusive [inhibitor, single point]"
18,COc1ccccc1S(=O)(=O)c1c(C)cc(C)[nH]c1=O,inactive
19,Nc1nnc(CSCc2ccc(Cl)cc2Cl)s1,inactive
20,CCOC(=O)N1CCN(C(=O)CCc2c(C)nc3c(c(C)nn3-c3ccc(C)c(C)c3)c2C)CC1,active: 13.1 µM
21,Cc1ccc(OCCN2CCN(c3nc(NCc4ccco4)c4ccccc4n3)CC2)cc1,"inconclusive [inhibitor, single point]"
22,O=C(CNc1cc(S(=O)(=O)N2CCCC2)ccc1OCC(F)(F)F)Nc1cc(Cl)cc(Cl)c1,inactive
23,CCOc1ccc(NC(=O)[C@@H](NC(=O)c2ccco2)C(C)C)cc1,"inconclusive [inhibitor, single point]"

row,Structure (SMILES),Potency
1,Cc1nc2ccc(NS(=O)(=O)c3c(F)cc(F)cc3Br)cc2s1,inactive
2,N#Cc1ccc(OCc2nnc(SCC(=O)c3ccccc3)n2-c2ccccc2)cc1,"inconclusive [inhibitor, single point]"
3,CCOC(=O)NC1(C(F)(F)F)NC(=O)N(c2ccc(F)cc2)C1=O (stereo not drawn),inactive
4,Cc1ccc(-c2nnc(N3CCCCCC3)c3ccccc23)cc1,"inconclusive [inhibitor, single point]"
5,CCCNC(=O)c1ccc2c(c1)ncn2-c1cc(C)cc(C)c1,"inconclusive [inhibitor, partial curve]"
6,O=c1c(-c2ccccc2)c1-c1ccccc1,active: 6.75 µM
7,O=C1c2cc(Cl)ccc2OC2(CCNCC2)C12CC(c1ccccc1)=NO2 (stereo not drawn),"inconclusive [inhibitor, single point]"
8,Cc1cc(=O)n2nc(N3CCC(C(=O)NCCc4ccccc4)CC3)sc2n1,"inconclusive [inhibitor, single point]"
9,Cc1nc2ccccc2n1CC(O)COCC1CC=CCC1 (stereo not drawn),"inconclusive [inhibitor, partial curve, poor fit]"
10,O=C1CCCC(O)=C1Sc1ccccc1C(=O)O,inactive
11,COc1ccc(N2CCN(CC(=O)Nc3nc4c(s3)CC(C)CC4)CC2)cc1 (stereo not drawn),inactive
12,CN(C)c1ccc(NC(=O)CSc2nc(C3CC3)nc3ccccc23)cc1,"inconclusive [inhibitor, partial curve, poor fit]"
13,COc1ccc2c(c1)-c1c(sn(-c3ccccc3)c1=S)C(C)(C)N2,"inconclusive [inhibitor, partial curve, poor fit]"
14,COc1cc(C2CC(=O)c3cnc(N4CCN(Cc5ccccc5)CC4)nc3C2)cc(OC)c1OC (stereo not drawn),active: 9.28 µM
15,O=C(O)c1cc(NC(=O)c2ccc(Cl)c([N+](=O)[O-])c2)cc(C(=O)O)c1,inactive
16,CC(=O)c1ccc(NC(=O)c2sc3nc4n(c(=O)c3c2C)CCCCC4)cc1,"inconclusive [inhibitor, single point]"
17,CCC(=O)OCC(=O)c1c(N)n(Cc2ccccc2)c(=O)n(C)c1=O,"inconclusive [inhibitor, full curve, poor fit]"
18,Cc1cc(=O)oc2cc(NC(=O)CC3(CC(=O)O)CCCC3)ccc12,inactive
19,CCCc1nc2oc(C(=O)OCC)c(N)c2c2c1COC(C)(C)C2,"inconclusive [inhibitor, single point]"
20,CC(C)(C)NS(=O)(=O)c1ccc(NC(=O)C2CCCO2)cc1 (stereo not drawn),"inconclusive [inhibitor, partial curve, poor fit]"
21,CC(C)c1ccc(OCC(=O)N(c2ccccn2)C2CCCCC2)cc1,"inconclusive [inhibitor, partial curve, poor fit]"
22,COc1ccc(/C=N/Nc2nc(=O)[nH]nc2C)cc1OC,"inconclusive [inhibitor, partial curve, poor fit]"
